Laboratory results from PubChem BioAssay AID686978 (National Center for Advancing Translational Sciences (NCATS), 2013).
“And” between values parts separate entries of the source, which are not always exact repeats. Equal values may be shown once. The campaign covered roughly 420,000 compounds. About 64,000 (15%) were called active. The inconclusive results got no clear call from the source; some entries with a clear call stand among them for comparison. The call rests on the fitted dose curve; in most records, active means well fitted inhibition curve with a large enough effect; inconclusive means small, poorly fitted or top-dose-only effect; inactive means flat fitted curve, though single readings scatter. Potencies of inconclusive entries are left out as doubtful fits. Where a structure was tested more than once in an assay, its records may differ in their call.

Test: qHTS for Inhibitors of human tyrosyl-DNA phosphodiesterase 1 (TDP1): qHTS in cells in absence of CPT; further: nearly all actives have a fitted effect of over 55% in size
Details: DT40 Tdp1-/- hTDP1 cells, no CPT, ATP luminescence, 48 h; activity change, negative = growth inhibition: at 46.2 µM (top of the series) unless noted
Method in brief: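 Seeded 400 DT40-hTDP1 cells/well (vehicle DMSO, no 20 nM CPT); pinned compounds; ≥48 hr at 37 °C; CellTiter-Glo luminescence as viability measure.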
On the % scale 0 is the no-effect control and ±100 the full control effect; potency means the concentration at half of the fitted maximal effect; tags describe the fitted curve by direction and shape.

Q: Which Potency does the source give for `CC(=O)Nc1ccc(C(=O)CSc2nnc3cc(C)c4ccccc4n23)cc1` here?
A: inconclusive [inhibitor, partial curve]

Q: Which Potency does the source give for `CCOC(=O)C1CCN(C(=O)CSc2c3c(nc4ccc(Cl)cc24)CCCC3)CC1` here?
A: inconclusive [inhibitor, single point]

Q: Which Potency does the source give for `CC(C)CC1OC(C(C)C)Cc2[nH]c(=S)[nH]c(=O)c21` (stereo not given) here?
A: inconclusive [inhibitor, single point]

Q: For `COC(=O)C1=CN(C(C)C)C=C(C(=O)OC)C1c1cccc(OC)c1`, which “activity change, negative = growth inhibition” value is on record?
A: inactive: -1.04%

Q: For `Cc1ccc(S(=O)(=O)N(C)c2ccc(OCC(=O)OCc3ccc(C#N)cc3)cc2)cc1`, which “activity change, negative = growth inhibition” value is on record?
A: inactive: -1.54%

Q: For `Cc1cccc(N(NC(=O)C(C)(C)O)C(=O)c2ccccc2)c1`, which “activity change, negative = growth inhibition” value is on record?
A: inactive: -0.734%

Q: For `COc1ccc(-n2c(Cc3cccn3C)nnc2SCC(=O)Nc2cccc(F)c2)cc1`, which Potency is on record?
A: active: 25.9 µM

Q: For `CCOc1ccccc1-n1nnnc1SCC(=O)NCC1(N2CCOCC2)CCCCC1`, which Potency is on record?
A: inconclusive [inhibitor, single point]

Q: With `CCOc1ccc(S(=O)(=O)Nc2ccc3c(c2)c(C(C)=O)c(C)n3S(=O)(=O)c2ccc(OCC)cc2)cc1` as the compound, how does the Potency read?
A: active: 5.17 µM

Q: With `CCCCn1c(CCC)nc([N+](=O)[O-])c1Sc1ccc(Cl)cn1` as the compound, how does the Potency read?
A: inconclusive [inhibitor, single point]

Q: With `CC1CN(Cc2nc3c(c(=O)n(C)c(=O)n3C)n2CCc2ccccc2)CC(C)O1` (stereo not given) as the compound, how does the “activity change, negative = growth inhibition” value read?
A: inactive: -5.83%

Q: With `O=C(NCC1CCCN1S(=O)(=O)c1cccs1)C(=O)Nc1ccc(F)cc1` (stereo not given) as the compound, how does the Potency read?
A: inconclusive [inhibitor, single point]

Q: Which Potency does the source give for `Cc1cc(SCC(=O)c2ccc(Br)cc2)cc(C)[o+]1` here?
A: inconclusive [inhibitor, single point]

Q: With `COC(=O)/C=C1/SC(=NC(=O)c2ccc(F)cc2)NC1=O` as the compound, how does the Potency read?
A: inconclusive [inhibitor, single point]

Q: Which “activity change, negative = growth inhibition” value does the source give for `CCCCn1c(N)c(N(C)C(=O)c2cn(-c3ccccc3)nc2-c2ccccc2)c(=O)[nH]c1=O` here?
A: inactive: -1.27%

Q: Which Potency does the source give for `C=C1C(=O)O[C@H]2C[C@]3(C)C([C@@H](OC(=O)/C(C)=C/C)[C@H]12)[C@](C)(O)CC[C@H]3O` (stereo not given in full) here?
A: active: 8.2 µM

Q: For `O=C(NCc1ccc(Cl)cc1)C(=O)NCC(c1ccco1)S(=O)(=O)c1cccs1` (stereo not given), which Potency is on record?
A: inconclusive [inhibitor, single point]

Q: Which “activity change, negative = growth inhibition” value does the source give for `COc1ccccc1C(=O)NCC(=O)OCC(=O)N1CC(C)OC(C)C1` (stereo not given) here?
A: inactive: -4.07%

Q: For `CCCCN(C)CCNC(=O)C(NC(=O)C1CCC(C)CC1)C(C)C` (stereo not given), which “activity change, negative = growth inhibition” value is on record?
A: inactive: -10.1%

Q: Which Potency does the source give for `CCCCn1c(-c2ccsc2)nc2c1c(=O)[nH]c(=O)n2CCC` here?
A: inconclusive [inhibitor, single point]

Q: With `Cc1cc(C(=O)CSc2nnc(-c3ccccc3)o2)c(C)n1CC1COc2ccccc2O1` (stereo not given) as the compound, how does the Potency read?
A: inconclusive [inhibitor, single point]

Q: Which Potency does the source give for `COCc1cc(C)nc(SCC(=O)Nc2ccc3c(c2)OCCO3)c1C#N` here?
A: inconclusive [inhibitor, partial curve]

Q: For `Cc1ccc(NC(=O)c2sc3nc(-c4ccc(F)cc4)cn3c2C)c(C)c1`, which Potency is on record?
A: inconclusive [inhibitor, partial curve]

Q: With `Cc1cc(/C=C2\SC(=O)N(C)C2=O)c(C)n1-c1ccc(S(N)(=O)=O)cc1` as the compound, how does the Potency read?
A: active: 9.2 µM

Q: Which Potency does the source give for `Fc1cccc(CSc2ccc3nnc(-c4ccccn4)n3n2)c1` here?
A: inconclusive [inhibitor, partial curve]

Q: Which “activity change, negative = growth inhibition” value does the source give for `CCOC(=O)C1CCN(C(=O)COC(=O)C2CCN(S(=O)(=O)c3ccc4c(c3)OCCO4)CC2)CC1` here?
A: inactive: -2.44%

Q: For `CC(C)(C)C(=O)Nc1sc(-c2ccccc2)cc1C(=O)O`, which Potency is on record?
A: inconclusive [inhibitor, full curve]

Q: Which Potency does the source give for `Cc1[nH]nc2nc(SCC(=O)NCC3CCCO3)n(-c3ccc(Br)cc3)c(=N)c12` (stereo not given) here?
A: inconclusive [inhibitor, single point]

Q: For `O=C(c1ccc(S(=O)(=O)N2CCCCCC2)cc1)N(c1ccccn1)C1CCCCC1`, which Potency is on record?
A: inconclusive [inhibitor, single point]

Q: Which “activity change, negative = growth inhibition” value does the source give for `Cc1ccccc1-n1c(=O)n(Cc2ccccc2)c(=O)c2[nH]cnc21` here?
A: inactive: -4.68%

Q: Which Potency does the source give for `CCCCNC(=S)N1CCN(Cc2ccc3c(c2)OCO3)CC1` here?
A: inconclusive [inhibitor, single point]

Q: With `CCc1nn2c(N3CCOCC3)cc(C)nc2c1-c1ccc(F)cc1` as the compound, how does the Potency read?
A: inconclusive [inhibitor, single point]

Q: With `Cc1nn(-c2ccccc2)c(C)c1C(=O)OCc1ccc(C#N)cc1` as the compound, how does the Potency read?
A: inconclusive [inhibitor, partial curve, poor fit]

Q: With `Cc1cc(C)nc(NS(=O)(=O)c2ccc(NC(=O)CN3C(=O)C4CC=CCC4C3=O)cc2)n1` (stereo not given) as the compound, how does the “activity change, negative = growth inhibition” value read?
A: inactive: -11.1%

Q: Which Potency does the source give for `CCC(C(=O)NC1CCCC1)N(C(=O)Cn1nnc(-c2ccc(C)cc2)n1)C1CCCC1` (stereo not given) here?
A: active: 18.4 µM

Q: For `COc1cc(OC)c(/C=C/c2ccc3ccccc3n2)c(OC)c1`, which Potency is on record?
A: active: 0.1 µM

Q: With `O=C(COc1ccc(Cl)cc1)NCCNC(=O)c1ccccn1` as the compound, how does the “activity change, negative = growth inhibition” value read?
A: inactive: -3.72%

Q: Which “activity change, negative = growth inhibition” value does the source give for `O=C(/C=C\c1cccs1)N1CCN(Cc2ccc3c(c2)OCO3)CC1` here?
A: inactive: -21.9%

Q: For `O=C(CCl)N1c2ccccc2Sc2c1ccc1ccccc21`, which Potency is on record?
A: active: 5.8 µM

Q: Which Potency does the source give for `O=C(COc1ccc2c3c(c(=O)oc2c1)CCCC3)N1CCN(c2ccccc2)CC1` here?
A: inconclusive [inhibitor, single point]

Q: For `COc1ccc(OC)c(NC(=O)C2(C)CCN2C(=O)Cc2ccccc2)c1` (stereo not given), which “activity change, negative = growth inhibition” value is on record?
A: inactive: -22.7%

Q: For `O=[N+]([O-])c1ccc(OCCOc2ccccc2/C=N/n2cnnc2)cc1`, which Potency is on record?
A: inconclusive [inhibitor, single point]

Q: With `COc1ccc(OC)c(/C=C/C(=O)c2ccc3c(c2)OCCO3)c1` as the compound, how does the Potency read?
A: inconclusive [inhibitor, single point]

Q: With `COc1cccc(NC(CNS(=O)(=O)c2ccc(C)cc2)c2ccccc2)c1` (stereo not given) as the compound, how does the Potency read?
A: inconclusive [inhibitor, single point]

Q: With `O=C(Nc1cc(Cl)cc(Cl)c1)C1CCC(=O)N1Cc1ccccc1Cl` (stereo not given) as the compound, how does the Potency read?
A: inconclusive [inhibitor, single point]

Q: Which Potency does the source give for `S=C(NCC1CCCCC1)Nc1ccc(Oc2ccccc2)cc1` here?
A: inconclusive [inhibitor, single point]

Q: With `COc1ccc(OC)c(/C=N/NC(=O)C(=O)N/N=C/c2cc(OC)ccc2OC)c1` as the compound, how does the Potency read?
A: inconclusive [inhibitor, single point]

Q: Which “activity change, negative = growth inhibition” value does the source give for `CCOc1ccc(C2/C(=C(\O)c3ccc4c(c3)OCCO4)C(=O)C(=O)N2CCN2CCOCC2)cc1OC` (stereo not given) here?
A: inactive: 21.1%

Q: For `COc1cc(/C=C(\C#N)C(=O)NCc2cccs2)ccc1O`, which “activity change, negative = growth inhibition” value is on record?
A: inactive: -24.2%

Q: With `O=C1/C(=C/Nc2ccc3c(c2)OCO3)CCc2ccccc21` as the compound, how does the Potency read?
A: inconclusive [inhibitor, full curve]

Q: For `O=C1c2ccccc2C2(c3cc(C(F)(F)F)cc(C(F)(F)F)c3)NCCN12` (stereo not given), which Potency is on record?
A: inconclusive [inhibitor, single point]

Q: With `COc1ccc(-c2csc3ncnc(N4CCN(S(=O)(=O)c5ccccc5C#N)CC4)c23)cc1` as the compound, how does the Potency read?
A: active: 16.4 µM

Q: Which Potency does the source give for `Oc1ccc(-c2csc(-c3cccnc3)n2)cc1O` here?
A: active: 23.1 µM

Q: With `COc1ccc(CN(C)C(=O)c2cccc(Oc3ccccc3)c2)c(OC)c1OC` as the compound, how does the Potency read?
A: inconclusive [inhibitor, single point]

Q: For `O=C(Nc1ccc2oc(-c3ccc(Cl)c(Cl)c3)nc2c1)c1ncn[nH]1`, which Potency is on record?
A: active: 5.17 µM

Q: For `Cc1ccc(NC(=O)CN2CCN(Cc3ccccc3)CC2)cc1Cl`, which Potency is on record?
A: active: 29.1 µM

Q: Which Potency does the source give for `O=C(CSc1ccc2ccccc2c1)Nc1ccncc1` here?
A: active: 14.6 µM

Q: With `O=C(Nc1cc(C(F)(F)F)ccc1Cl)c1ccncc1` as the compound, how does the “activity change, negative = growth inhibition” value read?
A: inactive: 4.69%

Q: With `CCCCCCn1c(=O)n2n(c1=O)[C@@H]1CN(S(=O)(=O)c3ccc(C)cc3)C[C@]1(O)[C@@H](OC(=O)NCc1ccc(OC)c(OC)c1)C2` as the compound, how does the Potency read?
A: inconclusive [inhibitor, single point]

Q: Which Potency does the source give for `O=C(NCCN1CCC(n2c(=O)[nH]c3ccccc32)CC1)c1ccc(F)cc1Cl` here?
A: inconclusive [inhibitor, single point]

Q: For `COc1ccccc1N(CC(=O)NCCSCc1ccc(Cl)cc1)S(C)(=O)=O`, which Potency is on record?
A: inactive and active: 23.1 µM

Q: For `Cc1cc(-c2ccc(C)c(S(=O)(=O)NCc3ccc(Cl)cc3)c2)on1`, which Potency is on record?
A: inconclusive [inhibitor, single point]

Q: Which Potency does the source give for `CCCS(=O)(=O)NCCc1csc2nc(-c3ccc(OC)cc3)nn12` here?
A: inconclusive [inhibitor, single point]

Q: Which Potency does the source give for `Cc1ncc(CO)c2c1Oc1nc(-c3ccccc3)nc(SCC(=O)Nc3cccc(O)c3)c1C2` here?
A: active: 25.9 µM

Q: Which Potency does the source give for `CCN(CC)S(=O)(=O)c1ccc(S(=O)(=O)Nc2ccc3c(c2)oc2ccccc23)cc1` here?
A: inconclusive [inhibitor, single point]

Q: With `N#Cc1ccccc1NC(=O)CSc1nnc(-c2ccccc2)n1-c1ccccc1` as the compound, how does the Potency read?
A: inconclusive [inhibitor, single point]

Q: For `CCC(Sc1nc2ccsc2c(=O)n1Cc1ccc(C(=O)O)cc1)C(=O)Nc1cc(Cl)ccc1C` (stereo not given), which Potency is on record?
A: inconclusive [inhibitor, single point]

Q: Which “activity change, negative = growth inhibition” value does the source give for `C=CCNC(=O)N1CCC(c2nc3ccccc3s2)CC1` here?
A: inactive: 2.37%

Q: For `Cc1ccccc1CNC(=O)CCCn1nc(C)c2sc3ccccc3c2c1=O`, which Potency is on record?
A: active: 20.6 µM

Q: With `COc1ccc(-c2cc(C(=O)N3CC4(C)CC3CC(C)(C)C4)no2)cc1OC` (stereo not given) as the compound, how does the Potency read?
A: active: 16.4 µM
